Test results as given in the DeepSol protein solubility set.

Assay: soluble on expression in E. coli; label from the status in PepcDB or PDB records

Row | Sequence | soluble on expression in E. coli
1 | MASSTSLPAPGSRPKKPLGKMADWFRQTLLKKPKKRPNSPESTSSDASQPTSQDSPLPPSLSSVTSPSLPPTHASDSGSSRWSKDYDVCVCHSEEDLVAAQDLVSYLEGSTASLRCFLQLRDATPGGAIVSELCQALSSSHCRVLLITPGFLQDPWCKYQMLQALTEAPGAEGCTIPLLSGLSRAAYPPELRFMYYVDGRGPDGGFRQVKEAVMRYLQTLSLEHHHHHH | not soluble
2 | MIFSVLCSDSRRLNALHALISAGFTMDFKAIQALTANDMAKVNETIHAQLNSDVSLINQLGFYIISGGGKRLRPLLAVLSAKALGYQGSHHTTAAAFIEFIHTATLLHDDVVDESDLRRGKATANAAFGNAASVLVGDFIYTRSFQMMTELGSMKILKLMSDAVNVIAEGEVQQLMNCNDPDTTEASYMQVIYSKTARLFEAATQIGAILCDASPEVELAMQNYGKYLGTAFQLIDDVMDYTSDGDEMGKNVGDDLAEGKPTLPLLYAMQHGNPEQAAMIREAIEKANGMSRLNEILAAMEQTGSLQYTIEKALHEADKAIAELAILPESEYKQALITLAHMAVNRSK | not soluble
3 | MSLTNVSGVDFQLRSVPLLSRVGADRADRLRTDMEAAAAGWPGAALLRVDSRNRVLVANGRVLLGAAIELADKPPPEAVFLGRVEGGRHVWAVRAALQPIADPDIPAEAVDLRGLGRIMDDTSSQLVSSASALLNWHDNARFSALDGAPTKPARAGWSRVNPITGHEEFPRIDPAVICLVHDGADRAVLARQAAWPERMFSLLAGFVEAGESFEVCVAREIREEIGLTVRDVRYLGSQQWPFPRSLMVGFHALGDPDEEFSFSDGEIAEAAWFTRDEVRAALAAGDWSSASESKLLLPGSISIARVIIESWAACEEGHHHHHH | not soluble
